From PMC9911399, “Two distinct binding modes provide the RNA-binding protein RbFox with extraordinary sequence specificity”
Changes are numbered by the printed parent chain; changes in the protein carry UniProt numbers. The list shows a part of the results.

T1: RBFOX1 RRM RbFoxmut (Fox-RRM*) (Homo sapiens, UniProt Q9NWB1 109-208, R118D;E147R;N151S;E152T)
T1 sequence: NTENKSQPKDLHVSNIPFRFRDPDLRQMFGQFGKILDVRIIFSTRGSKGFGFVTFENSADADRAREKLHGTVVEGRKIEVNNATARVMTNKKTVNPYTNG

B1: UAUAGCC (DNA:RNA)
RNA: GGGAGACCGGAAUUCAGAUUGUCCUAUAGCCUUAAAUCCCGUCGUAGCCACCA
DNA 1: CAATCTGAATTCCGGTCTCCC
DNA 2: TGGTGGCTACGACGGGATT
B2: UGUCCCU (DNA:RNA)
RNA: B1 RNA with A26G, A28C, G29C, C31U
DNA 1: CAATCTGAATTCCGGTCTCCC
DNA 2: TGGTGGCTACGACGGGATT
B3: UGGUCGU (DNA:RNA)
RNA: B1 RNA with A26G, U27G, A28U, G29C, C30G, C31U
DNA 1: CAATCTGAATTCCGGTCTCCC
DNA 2: TGGTGGCTACGACGGGATT
B4: CUGGAUU (DNA:RNA)
RNA: GGGAGACCGGAAUUCAGAUUGUCCCUGGAUUUUAAAUCCCGUCGUAGCCACCA
DNA 1: CAATCTGAATTCCGGTCTCCC
DNA 2: TGGTGGCTACGACGGGATT
B5: UGGGUUA (DNA:RNA)
RNA: B4 RNA with C25U, U26G, A29U, U31A
DNA 1: CAATCTGAATTCCGGTCTCCC
DNA 2: TGGTGGCTACGACGGGATT
B6: AGGGAGA (DNA:RNA)
RNA: B4 RNA with C25A, U26G, U30G, U31A
DNA 1: CAATCTGAATTCCGGTCTCCC
DNA 2: TGGTGGCTACGACGGGATT
B7: CGUAGGU (DNA:RNA)
RNA: B1 RNA with U25C, A26G, C30G, C31U
DNA 1: CAATCTGAATTCCGGTCTCCC
DNA 2: TGGTGGCTACGACGGGATT
B8: GUACUAG (DNA:RNA)
RNA: B4 RNA with C25G, G27A, G28C, A29U, U30A, U31G
DNA 1: CAATCTGAATTCCGGTCTCCC
DNA 2: TGGTGGCTACGACGGGATT
B9: GUAAAUU (DNA:RNA)
RNA: B4 RNA with C25G, G27A, G28A
DNA 1: CAATCTGAATTCCGGTCTCCC
DNA 2: TGGTGGCTACGACGGGATT
B10: GGCGGGG (DNA:RNA)
RNA: B4 RNA with C25G, U26G, G27C, A29G, U30G, U31G
DNA 1: CAATCTGAATTCCGGTCTCCC
DNA 2: TGGTGGCTACGACGGGATT
B11: ACGAGGU (DNA:RNA)
RNA: B4 RNA with C25A, U26C, G28A, A29G, U30G
DNA 1: CAATCTGAATTCCGGTCTCCC
DNA 2: TGGTGGCTACGACGGGATT
B12: GUCUUAU (DNA:RNA)
RNA: B4 RNA with C25G, G27C, G28U, A29U, U30A
DNA 1: CAATCTGAATTCCGGTCTCCC
DNA 2: TGGTGGCTACGACGGGATT
B13: CAGAGAC (DNA:RNA)
RNA: B1 RNA with U25C, U27G, C30A
DNA 1: CAATCTGAATTCCGGTCTCCC
DNA 2: TGGTGGCTACGACGGGATT
B14: GAUAAUA (DNA:RNA)
RNA: B1 RNA with U25G, G29A, C30U, C31A
DNA 1: CAATCTGAATTCCGGTCTCCC
DNA 2: TGGTGGCTACGACGGGATT
B15: GAACCUC (DNA:RNA)
RNA: B1 RNA with U25G, U27A, A28C, G29C, C30U
DNA 1: CAATCTGAATTCCGGTCTCCC
DNA 2: TGGTGGCTACGACGGGATT
B16: AACAUGU (DNA:RNA)
RNA: B1 RNA with U25A, U27C, G29U, C30G, C31U
DNA 1: CAATCTGAATTCCGGTCTCCC
DNA 2: TGGTGGCTACGACGGGATT
B17: GUUGCAA (DNA:RNA)
RNA: B4 RNA with C25G, G27U, A29C, U30A, U31A
DNA 1: CAATCTGAATTCCGGTCTCCC
DNA 2: TGGTGGCTACGACGGGATT
B18: UUCAGAU (DNA:RNA)
RNA: B1 RNA with A26U, U27C, C30A, C31U
DNA 1: CAATCTGAATTCCGGTCTCCC
DNA 2: TGGTGGCTACGACGGGATT
B19: GAGCUCU (DNA:RNA)
RNA: B4 RNA with C25G, U26A, G28C, A29U, U30C
DNA 1: CAATCTGAATTCCGGTCTCCC
DNA 2: TGGTGGCTACGACGGGATT
B20: UACUAUA (DNA:RNA)
RNA: B4 RNA with C25U, U26A, G27C, G28U, U31A
DNA 1: CAATCTGAATTCCGGTCTCCC
DNA 2: TGGTGGCTACGACGGGATT

Target: T1, RBFOX1 RRM RbFoxmut (Fox-RRM*)
Test: EMSA; HiTS-Eq, 1 nM pool, 10 min; buffer printed only for the single-RNA assays: 10 mM Tris pH 7.5, 150 mM NaCl, 3.4 mM EDTA, 0.001% NP-40, 30 C
Details: tags: His6 N-terminal (pET28a); label: 5' 32P
Summary of the method: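 Purified RbFox RRM, wild type or mutant, was incubated for 10 min in 50 µL with 1 nM of a 5′-radiolabelled RNA pool carrying 7 randomized nucleotides, whose flanks were annealed to DNA oligonucleotides, over a series of increasing protein concentrations. Unbound RNA was resolved on 8% native PAGE, cut out, reverse-transcribed, barcoded by PCR and sequenced on an Illumina HiSeq 2500. Relative association constants were derived from changes in read counts for each RNA species versus the control reaction and normalised to the cognate motif.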

Row | Binder | binding signal
1 | B1 | 0.146 KA relative to UGCAUGU
2 | B2 | 0.0632 KA relative to UGCAUGU
3 | B3 | 0.199 KA relative to UGCAUGU
4 | B4 | 0.0715 KA relative to UGCAUGU
5 | B5 | 0.173 KA relative to UGCAUGU
6 | B6 | 0.124 KA relative to UGCAUGU
7 | B7 | 0.142 KA relative to UGCAUGU
8 | B8 | 0.124 KA relative to UGCAUGU
9 | B9 | 0.097 KA relative to UGCAUGU
10 | B10 | 0.0647 KA relative to UGCAUGU
11 | B11 | 0.11 KA relative to UGCAUGU
12 | B12 | 0.103 KA relative to UGCAUGU
13 | B13 | 0.0641 KA relative to UGCAUGU
14 | B14 | 0.0443 KA relative to UGCAUGU
15 | B15 | 0.0711 KA relative to UGCAUGU
16 | B16 | 0.0875 KA relative to UGCAUGU
17 | B17 | 0.0739 KA relative to UGCAUGU
18 | B18 | 0.0764 KA relative to UGCAUGU
19 | B19 | 0.064 KA relative to UGCAUGU
20 | B20 | 0.13 KA relative to UGCAUGU
